Measurements published in the supplement of paper PMC8285479.
Where a name gives a salt, the structure may show the parent alone. ± gives the standard deviation of the averaged measurements. The full ranking holds about 1,900 compounds; the median of “normalised cell viability (NPI; 0 = phenylarsine oxide control, 1 = DMSO control)” is about 1, and the lowest 2% start at about 0.039. Some of the results follow.

Tested on: NCI-H1944
Assay: normalised cell viability (NPI; 0 = phenylarsine oxide control, 1 = DMSO control) (fraction of DMSO control); NCI-H1944 is a non-small cell lung cancer line; higher = more viable cells (less compound toxicity)
Details: 6 days
[1] = glucocorticoid arm: hydrocortisone 2.75 uM co-treatment, compound 1 µM
[2] = glucocorticoid arm: hydrocortisone 2.75 uM co-treatment, compound 5 µM
[3] = glucocorticoid arm: hydrocortisone 2.75 uM pre-treated 2 days and continued, compound 1 µM
[4] = glucocorticoid arm: hydrocortisone 2.75 uM pre-treated 2 days and continued, compound 5 µM
[5] = glucocorticoid arm: vehicle, compound 1 µM
[6] = glucocorticoid arm: vehicle, compound 5 µM
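Also: CTB read-out in 384-well plates, mean of triplicate wells, normalised per plate against 1 µM phenylarsine oxide and 0.1% DMSO, compounds added 24 h after seeding.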

SMILES	normalised cell viability [1]	normalised cell viability [2]	normalised cell viability [3]	normalised cell viability [4]	normalised cell viability [5]	normalised cell viability [6]
Cc1nn(-c2ccccc2)c(C)c1C=NN1CCN(Cc2ccccc2)CC1	1.01 ± 0.01	0.991 ± 0.05	1.02 ± 0.011	0.9927 ± 0.0078	0.9987 ± 0.0023	0.996 ± 0.013
CC(C)C(=O)Oc1ccc(CO)cc1[C@H](CCN(C(C)C)C(C)C)c1ccccc1 [Fesoterodine Fumarate]	1.002 ± 0.0076	0.966 ± 0.019	1 ± 0.025	0.984 ± 0.04	1.001 ± 0.009	1 ± 0.016
Fc1ccc(CN(C2=NCCN2)c2c(Cl)cccc2Cl)cc1 [IMID-4F hydrochloride]	1.007 ± 0.0058	0.435 ± 0.024	1.013 ± 0.0058	1.05 ± 0.011	1.005 ± 0.0081	0.16 ± 0.0067
CCc1cc2c(cc1N1CCC(N3CCOCC3)CC1)C(C)(C)c1[nH]c3cc(C#N)ccc3c1C2=O	0.979 ± 0.021	0.897 ± 0.011	0.9593 ± 0.0074	0.935 ± 0.013	0.9967 ± 0.0058	0.985 ± 0.0076
COc1ccc(NS(=O)(=O)c2sc3ccc(Cl)cc3c2C)cc1N1CCNCC1	1.02 ± 0.021	1.03	1.023 ± 0.0058	1.04 ± 0.026	1.02	1
Cn1c(=O)[nH]c2ncn(C)c2c1=O [1,7-Dimethylxanthine]	1.007 ± 0.0058	1.01 ± 0.015	1.01 ± 0.011	1 ± 0.018	1.002 ± 0.0068	0.9987 ± 0.0015
C/C(=C\c1csc(C)n1)[C@@H]1C[C@@H]2O[C@]2(C)CCC[C@H](C)[C@H](O)[C@@H](C)C(=O)C(C)(C)[C@@H](O)CC(=O)N1 [Ixabepilone]	0.132 ± 0.012	0.146 ± 0.018	0.484 ± 0.023	0.477 ± 0.05	0.0322 ± 0.0044	0.032 ± 0.004
C1COC(NC(C2CC2)C2CC2)=N1 [Rilmenidine hemifumarate]	1.007 ± 0.0058	1.013 ± 0.0058	1.02 ± 0.032	1 ± 0.015	0.999 ± 0.001	0.996 ± 0.016
OC[C@H]1O[C@@H](n2cnc3c(NC4CCCC4)ncnc32)[C@H](O)[C@@H]1O [N6-Cyclopentyladenosine]	1.01 ± 0.01	0.998 ± 0.014	1.001 ± 0.0081	1.005 ± 0.0071	1.002 ± 0.0068	1.007 ± 0.0058
C[N+](C)(C)CC=O [Betaine aldehyde chloride]	0.9877 ± 0.0021	0.993 ± 0.012	0.9913 ± 0.0081	0.993 ± 0.0085	0.9647 ± 0.0015	0.9803 ± 0.0015
CCCn1c(=O)[nH]c(=O)c2[nH]cnc21 [3-n-Propylxanthine]	1.006 ± 0.0075	1.01 ± 0.013	1.007 ± 0.0058	1.04 ± 0.04	0.9923 ± 0.0064	1 ± 0.018
CC(C)NCC(O)COc1ccc(CCOCC2CC2)cc1 (stereo unspecified) [Betaxolol hydrochloride]	1 ± 0.0087	1 ± 0.018	0.9883 ± 0.0049	1.02 ± 0.021	0.989 ± 0.011	1.01 ± 0.013
CC(C)NCC(O)COc1ccc(CCOCC2CC2)cc1 (stereo unspecified) [Betaxolol HCl]	1.01 ± 0.018	0.991 ± 0.0072	1.027 ± 0.0058	0.995 ± 0.036	1.003 ± 0.0058	1 ± 0.022
NC1CCN(c2cccc(Cl)n2)CC1	0.972 ± 0.0035	0.971 ± 0.025	0.868 ± 0.22	0.969 ± 0.022	0.9767 ± 0.0035	0.977 ± 0.0027
NC(=NCCC[C@H](N)C(=O)O)NO [NG-Hydroxy-L-arginine acetate]	1.01	0.991 ± 0.014	0.9913 ± 0.0096	1 ± 0.027	0.9893 ± 0.0023	0.987 ± 0.001
CC(NC(=O)c1ccccc1/N=C/c1c(O)ccc2ccccc12)c1ccccc1 (stereo unspecified) [Sirtinol]	–	–	–	–	–	1.01
Cc1ccc(S(=O)(=O)N[C@@H](Cc2ccccc2)C(=O)CCl)cc1 [N-p-Tosyl-L-phenylalanine chloromethyl ketone]	0.9977 ± 0.0032	1.01 ± 0.028	0.868 ± 0.25	1.02 ± 0.015	1.007 ± 0.0058	0.691 ± 0.057
O=C(O)COCCN1CCN(C(c2ccccc2)c2ccc(Cl)cc2)CC1 (stereo unspecified) [Cetirizine DiHCl]	1 ± 0.013	1.02 ± 0.01	1.007 ± 0.0058	1.03 ± 0.021	1.004 ± 0.0098	0.996 ± 0.0061
N[C@@H]1CONC1=O [D-Cycloserine]	1.013 ± 0.0058	1.02 ± 0.017	1.01	0.996 ± 0.035	0.989 ± 0.0095	0.9983 ± 0.0029
Cn1cc(-c2cnn3c(N)c(Br)c([C@@H]4CCCNC4)nc23)cn1	0.972 ± 0.0099	0.931 ± 0.041	0.948 ± 0.018	0.936 ± 0.0078	1.005 ± 0.0087	0.9357 ± 0.0057
C=CC(=O)Nc1cccc(Nc2nc(Nc3ccc(Oc4ccnc(C(=O)NC)c4)cc3)ncc2F)c1	0.942 ± 0.017	0.7137 ± 0.0064	0.922 ± 0.0056	0.872 ± 0.075	0.98967 ± 0.00058	0.466 ± 0.029
CCCSc1nc(N[C@@H]2C[C@H]2c2ccc(F)c(F)c2)c2nnn([C@@H]3C[C@H](OCCO)[C@@H](O)[C@H]3O)c2n1 [Ticagrelor]	1.01 ± 0.017	1.01 ± 0.034	1.027 ± 0.0058	1.01 ± 0.015	1.002 ± 0.007	0.988 ± 0.0082
CC(=O)O[C@]1(C(C)=O)CC[C@H]2[C@@H]3C=C(Cl)C4=CC(=O)[C@@H]5C[C@@H]5[C@]4(C)[C@H]3CC[C@@]21C [Cyproterone acetate]	1.01 ± 0.011	1.03 ± 0.015	1.01 ± 0.018	1.015 ± 0.0071	0.994 ± 0.006	1.01
O=C(O)C1CCCN(CCC=C(c2ccccc2)c2ccccc2)C1 (stereo unspecified)	0.9933 ± 0.0021	1 ± 0.025	1.01 ± 0.026	0.999 ± 0.0017	1.002 ± 0.007	0.9933 ± 0.0099
COc1ccc(-c2ccc3ncc4c(c3c2)n(-c2ccc(N3CCNCC3)c(C(F)(F)F)c2)c(=O)n4C)cn1	0.00163 ± 0.00092	0.000434 ± 0.00018	0.25 ± 0.021	0.0016 ± 0.00014	0.000974 ± 0.00058	0.000275 ± 0.00038
COc1cc2nc(N(C)CCCNC(=O)C3CCCO3)nc(N)c2cc1OC (stereo unspecified) [Alfuzosin HCl]	1.02 ± 0.025	1.03 ± 0.021	1.04 ± 0.01	1.043 ± 0.0058	1	0.9847 ± 0.004
